In PubChem BioAssay AID624417 (National Center for Advancing Translational Sciences (NCATS), 2012):
The campaign covered roughly 410,000 compounds. About 6,400 (1.6%) were called active. Inconclusive means that the source gave no clear call. Such entries were picked first, then a sample of the others. The call rests on the fitted dose curve; in most records, active means well fitted inhibition curve with a large enough effect; inconclusive means small, poorly fitted or top-dose-only effect; inactive means no such curve, though single readings can be large or run the other way. A potency beside an inconclusive call is a rough fit, not a confirmed value.

Target: Glucagon-like peptide 1 receptor (Homo sapiens) (UniProt P43220)
Test: qHTS of GLP-1 Receptor Inverse Agonists (Inhibition Mode); further: nearly all actives have a fitted effect of over 55% in size
Settings: HEK293 GLP-1R CRE-luciferase, luminescence, 24 h; Potency: GLP-1R form is constitutively active unless noted; activity change, negative = inhibition: at 38.3 µM (top of the series) unless noted
How it was run: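 Luminescence readout: a drop in cAMP-driven luciferase signal flags inverse agonism at a constitutively active GLP-1R stably expressed in HEK293. Compound exposure lasted 24 hr at 37 deg C, 5% CO2.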
On the % scale 0 is the no-effect control and ±100 the full control effect; potency means the concentration at half of the fitted maximal effect; tags describe the fitted curve by direction and shape.

Sequence of UniProt P43220 (P43220 whole entry, looked up): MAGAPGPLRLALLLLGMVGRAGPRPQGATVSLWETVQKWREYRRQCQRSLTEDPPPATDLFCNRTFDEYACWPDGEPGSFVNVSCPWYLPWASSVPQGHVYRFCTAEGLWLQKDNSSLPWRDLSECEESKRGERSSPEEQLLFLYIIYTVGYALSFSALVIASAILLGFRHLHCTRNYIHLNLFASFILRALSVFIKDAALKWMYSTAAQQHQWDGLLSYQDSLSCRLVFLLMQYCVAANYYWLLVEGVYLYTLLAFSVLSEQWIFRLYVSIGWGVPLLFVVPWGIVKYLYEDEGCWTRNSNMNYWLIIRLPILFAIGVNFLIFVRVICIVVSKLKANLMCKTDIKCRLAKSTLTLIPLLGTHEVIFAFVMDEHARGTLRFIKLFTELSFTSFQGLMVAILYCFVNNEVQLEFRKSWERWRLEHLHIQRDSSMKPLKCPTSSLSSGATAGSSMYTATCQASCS

Row | SMILES | Potency | activity change, negative = inhibition
1 | Cc1ccccc1-n1c(O)c(/C=C2/C(c3ccccc3)=Nc3ccccc32)c(=O)[nH]c1=O | inconclusive: 1.41 µM [inhibitor, partial curve, poor fit] | 
2 | Clc1ccc2c(c1)C(c1ccccc1Cl)=NCc1nnc(N3CCN(CCSc4ccccc4)CC3)n1-2 |  | inactive: 0%
3 | CCC(C)(C)n1nnnc1C(c1cccs1)N1CC=C(c2ccc(F)cc2)CC1 (configuration not stated) | inconclusive: 11.2 µM [inhibitor, single point] | 
4 | OCCN1CCN(CCCN2c3ccccc3Sc3ccc(C(F)(F)F)cc32)CC1 | inconclusive: 10 µM [inhibitor, partial curve, poor fit] | 
5 | Nc1nc2c(s1)CCCCCCCCCC2 | inconclusive: 7.08 µM [inhibitor, partial curve, poor fit] | 
6 | Cn1cnc([N+](=O)[O-])c1Sc1ccc([N+](=O)[O-])cc1 | inconclusive: 31.6 µM [inhibitor, single point] | 
7 | O=C1NC(=S)NC(=O)C1=Cc1ccc(OCC(=O)N2CCCC2)cc1 |  | inactive: 15.6%
8 | COc1ccc(C2/C=C\CN(C(=O)Oc3ccc(C(F)(F)F)cc3)CC(=O)N2Cc2ccc(F)cc2)cc1 (configuration not stated) | inconclusive: 8.91 µM [inhibitor, partial curve, poor fit] | 
9 | CN(C[C@H](Cc1ccccc1)N(C[C@H](Cc1ccccc1)N(CCC(C)(C)C)N=O)N=O)N=O | inconclusive: 10 µM [inhibitor, partial curve, poor fit] | 
10 | O=C(Nc1ccc(F)c(Cl)c1)N(Cc1ccc2c(c1)OCO2)C1CCN(Cc2ccccc2)CC1 | inconclusive: 28.2 µM [inhibitor, single point] | 
11 | O=C(Nc1ccc2nc(SCC(=O)N3CCCc4ccccc43)sc2c1)c1cccc(F)c1 | inconclusive: 17.8 µM [inhibitor, partial curve, poor fit] | 
12 | Cc1cc(C)cc(NC(=S)NC2CC3CCCC(C2)N3Cc2cccs2)c1 (configuration not stated) | inconclusive: 7.94 µM [inhibitor, partial curve, poor fit] | 
13 | COC(=O)C1=C(c2ccc(Cl)c(C(F)(F)F)c2)C[C@@H]2CC[C@H]1N2C(=O)NCCCOC(C)C | inconclusive: 12.6 µM [inhibitor, single point] | 
14 | CCn1c(=O)oc2cc(NC(=O)CCl)ccc21 | inconclusive: 28.2 µM [inhibitor, single point] | 
15 | O=C1NC(=O)N(Cc2ccccc2)C(=O)/C1=C/C=C/c1ccco1 | inconclusive: 28.2 µM [inhibitor, single point] | 
16 | O=c1[nH]c(=S)n(-c2ccccc2)c(O)c1/C=N/N1CCOCC1 |  | inactive: 0.397%
17 | CC1=C(C/C(C)=C/c2ccccc2)/C(=C/CO)[C@H](O)[C@](C)(O)C12CC2 | inconclusive: 31.6 µM [inhibitor, single point] | 
18 | O=C(c1cc(F)ccc1F)C1CCCN(Cc2cc(Cl)ccc2O)C1 (configuration not stated) | inconclusive: 10 µM [inhibitor, single point] | 
19 | CCOc1cc2c(cc1OCC)-n1cccc1C(c1ccccc1O)NC2 (configuration not stated) | inconclusive: 28.2 µM [inhibitor, single point] | 
20 | O=C1C(c2ccccc2)=C(N2CC2)c2ccccc21 | inconclusive: 10 µM [inhibitor, partial curve] | 
21 | O=C(Cc1cc(=O)oc2cc(O)ccc12)NN=Cc1ccc(N(CCCl)CCCl)cc1 | inconclusive: 31.6 µM [inhibitor, single point] | 

Row | SMILES | Potency | activity change, negative = inhibition
22 | Nc1c(C(=O)Nc2ccc(F)c(Cl)c2)sc2nc3c(cc12)N1CCC3CC1 | inconclusive: 3.98 µM [inhibitor, single point] | 
23 | CN1CC(C(=O)c2ccc(F)cc2)C(c2ccc(F)cc2)C1 (configuration not stated) | inconclusive: 10 µM [inhibitor, single point] | 
24 | COC(=O)C1=C(c2ccc(F)cc2OCc2ccccc2)C[C@@H]2CC[C@H]1N2C(=O)NCc1ccccc1 | inconclusive: 28.2 µM [inhibitor, single point] | 
25 | Cc1cc(N2CCCCC2)nc2ccc(NC(=O)CCC(=O)N3CCN(c4cccc(Cl)c4)CC3)cc12 | inconclusive: 28.2 µM [inhibitor, single point] | 
26 | COC(=O)[C@@H]1N=C(c2ccc(OC)cc2)O[C@]12C(=O)N(Cc1ccc(OC)cc1)c1ccccc12 | inconclusive: 2.82 µM [inhibitor, full curve] | 
27 | O=C(c1ccc(N2CC3CC(C2)c2cccc(=O)n2C3)c([N+](=O)[O-])c1)N1CCCCC1 (configuration not stated) |  | inactive: -13.5%
28 | CNCC(=O)c1ccccc1 |  | inactive: -4.43%
29 | c1ccc(CNc2c3c(nc4ccccc24)CCC3)cc1 | inconclusive: 10 µM [inhibitor, partial curve, poor fit] | 
30 | Cc1ccc(C(=O)C2CN(C)CC2C(=O)c2ccc(C)cc2)cc1 (configuration not stated) | inconclusive: 11.2 µM [inhibitor, partial curve, poor fit] | 
31 | COc1ccc(C(c2nnnn2-c2c(C)cccc2C)N2CCC(n3c(=O)[nH]c4ccccc43)CC2)cc1 (configuration not stated) | inconclusive: 28.2 µM [inhibitor, single point] | 
32 | CCOc1ccc(-c2cc(C)[n+](CCN(CC)CC)c(-c3ccc(OCC)cc3)c2)cc1 | inconclusive: 1 µM [inhibitor, partial curve, poor fit] | 
33 | CCc1ccc(OCC(=O)N2CCN(Cc3ccc4c(c3)OCO4)CC2)cc1 |  | inconclusive: -32% [inhibitor] [at 7.66 µM, GLP-1R form is constitutively active]
34 | COc1cccc(NP(=O)(Oc2ccc(Cl)cc2)Oc2ccc(Cl)cc2)c1 | inconclusive: 5.01 µM [inhibitor, full curve, poor fit] | 
35 | COC(=O)C1=C(c2ccc(OC(F)(F)F)cc2)C[C@@H]2CC[C@H]1N2C(=O)NCCCOC(C)C | inconclusive: 12.6 µM [inhibitor, single point] | 
36 | Fc1ccc2c(c1)nnn2C1CCN(Cc2c(Cl)cccc2Cl)CC1 | inconclusive: 2.24 µM [inhibitor, full curve, poor fit] | 
37 | CN(C)c1ccc(/C=C/C=C/c2sc3ccccc3[n+]2C)cc1 | inconclusive: 0.891 µM [inhibitor, full curve] | 
38 | Cc1ccc(-c2cc(-c3ccc(C)cc3)[n+](-c3ccc(C(=O)[O-])cc3)c(-c3ccc(C)cc3)c2)cc1 |  | inactive: -0.931%
39 | O=C(Nc1ccccc1)N(Cc1ccc2c(c1)OCO2)C1CCN(Cc2ccccc2)CC1 | inconclusive: 15.8 µM [inhibitor, single point] | 
40 | Cc1cccc(C)c1NC1=NCCCS1 |  | inactive: -9.67%
41 | Cc1c(C(=O)Nc2ccccc2)c2cc(O)ccc2n1Cc1ccccc1 | inconclusive: 28.2 µM [inhibitor, single point] | 
42 | CC(=O)Nc1cccc(-c2csc(C(O)c3cccc(Cl)c3)n2)c1 (configuration not stated) | inconclusive: 28.2 µM [inhibitor, single point] | 

Row | SMILES | Potency | activity change, negative = inhibition
43 | C[n+]1c(-c2ccccc2)cc(-c2ccc(Cl)cc2)cc1-c1ccccc1 | inconclusive: 7.94 µM [inhibitor, partial curve, poor fit] | 
44 | O=C(Nc1ccc2c(c1)OCO2)c1cn(Cc2ccc(F)cc2)nn1 | inconclusive: 28.2 µM [inhibitor, single point] | 
45 | O=c1c2ccccc2sn1-c1ccc(Cl)cc1 | inconclusive: 8.91 µM [inhibitor, partial curve, poor fit] | 
46 | CCOC(=O)[C@]12Cc3cc(C)ccc3[C@H]1N(CCC(=O)OC)C(=O)c1ccccc12 | inconclusive: 15.8 µM [inhibitor, single point] | 
47 | O=c1[nH]c2ccccc2n1C1CCN(C(c2nnnn2-c2ccc3c(c2)OCCO3)C2CC2)CC1 (configuration not stated) | inconclusive: 0.794 µM [inhibitor, full curve, poor fit] | 
48 | COCCCNC(=O)c1c(N)n(Cc2ccco2)c2nc3ccccc3nc12 | inconclusive: 28.2 µM [inhibitor, single point] | 
49 | C[C@]12CC[C@H](N)CC1=CCC1C2CC[C@@]2(C)C1CC[C@@H]2O (some centres not stated) | inconclusive: 3.55 µM [inhibitor, full curve, poor fit] | 
50 | CN(C[C@H](Cc1ccccc1)N(C[C@H](c1ccccc1)N(CCc1ccccc1)N=O)N=O)N=O | inconclusive: 10 µM [inhibitor, single point] | 
51 | O=P(Nc1ccccc1)(Oc1ccccc1)Oc1ccccc1 | inconclusive: 11.2 µM [inhibitor, partial curve, poor fit] | 
52 | CCOP(=O)(OCC)C(Nc1cc(Cl)cc(Cl)c1)c1cccc(O)c1 (configuration not stated) | inconclusive: 20 µM [inhibitor, single point] | 
53 | O=C(Nc1ccccn1)NC12CC3CC(CC(C3)C1)C2 | active: 1.41 µM [setting not given] | 
54 | Fc1ccccc1CNC1CN2CCC1CC2 (configuration not stated) | inconclusive: 0.794 µM [inhibitor, full curve, poor fit] | 
55 | CN1CCN(Cc2cc(C(C)(C)C)c(O)c(C(C)(C)C)c2)CC1 |  | inactive: -21.2%
56 | COc1ccccc1N1CCN(Cc2cnc(-c3ccccc3)[nH]2)CC1 |  | inactive: -4.29%
57 | CC(C)N(CC#CCC1(O)c2ccccc2-c2ccccc21)C(C)C | inconclusive: 2.82 µM [inhibitor, single point] | 
58 | Oc1ccc(Cl)cc1 |  | inactive: 4.37%
59 | O=c1[nH]c(=O)n(Cc2ccc(F)cc2)c(O)c1C=NCCN1CCCCC1 |  | inactive: 2.04%
60 | CCCCCCn1c(O)c(C=NCCCn2ccnc2)c(=O)[nH]c1=O |  | inactive: -12.9%
61 | COc1cc2c(ccc3c4cc(OC)c(OC)cc4c[n+](C)c23)cc1O |  | inactive: 18.7%
62 | O=C1NC(=O)C(CCc2ccccn2)(Cc2cccc(Cl)c2Cl)C(=O)N1c1ccc(Br)cc1 (configuration not stated) | inconclusive: 28.2 µM [inhibitor, single point] | 
